Laboratory results published in PubChem BioAssay AID493208 (National Center for Advancing Translational Sciences (NCATS), 2011).
Screen size: about 44,000 compounds; about 340 (0.77%) were called active. Inconclusive results (about 5%) are left out. The call rests on the fitted dose curve; in most records, active means well fitted inhibition curve with a large enough effect; inconclusive means small, poorly fitted or top-dose-only effect; inactive means flat fitted curve, though single readings scatter. The list shows a part of the results.

assay: Acumen qHTS Assay for Inhibitors of the mTORC1 Signaling Pathway in MEF (Tsc2-/-, p53-/-) Cells: Sytravon; settings: phospho-rpS6 immunofluorescence/PI, 24 h; series mostly up to 38.3 µM; activity change, negative = inhibition: at the top concentration;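 further: plate controls were DMSO for no effect and rapamycin for full effect; nearly all actives have a fitted effect of over 50% in size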
How it was run: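 Immunofluorescence of rpS6 phosphorylation in Tsc2-/-, p53-/- MEFs after 24 h compound exposure, normalized to propidium iodide signal. Activity is expressed as % positive cells, thresholded with 7.5 nM rapamycin.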

Activity change, negative = inhibition, inactive:
Cc1cc(C)c(S(=O)(=O)NCc2csc(-c3ccccc3)n2)c(C)c1 4.52%
Cc1ccc2nc(COc3cccc(NC(=O)c4cccc(Cl)c4)c3)cc(=O)n2c1 9.19%
CCC12CN3CC(C)(CN(C1)C3c1c[nH]c3ccc(OC)cc13)C2=O (stereo unspecified) -1.7%
Cc1ccc(OCC(=O)Nc2ccc3nc(SCC(=O)N4CCOCC4)sc3c2)cc1C -0.618%
CCOC(=O)C1CCCN(C(=O)CCS(=O)(=O)c2cc3c(cc2Cl)NC(=O)CO3)C1 (stereo unspecified) -0.0328%
CCC(Sc1nc2cc3c(cc2c(=O)n1CCCC(=O)NCc1ccc(OC)cc1)OCO3)C(=O)NCCCOC (stereo unspecified) -1.04%
CCN(CC)C(=O)c1sc2c(c1C)c(=O)n(-c1ccc(C)c(C)c1)c(=O)n2Cc1cccc(Cl)c1 -6.2%
Cc1ccc2cccc(NC(=O)c3ccc(C#N)cc3F)c2n1 -10.5%
Cc1ccccc1NC(=O)Cn1c(=O)n(CCC(=O)NCc2ccc3c(c2)OCO3)c(=O)c2sccc21 1.76%
CC(=O)N1CCc2cc(CNS(=O)(=O)c3ccc(C(C)(C)C)cc3)ccc21 8.04%
O=C1CN(C(=O)c2ccc(S(=O)(=O)N3CCCCC3)cc2)C(c2ccc(F)cc2)c2cc(Br)ccc2N1 (stereo unspecified) -16.6%
COc1ccccc1OCCn1c(NC(=O)c2ccccc2)nc2ccccc21 -6.18%
Cc1ccc(NC(=O)C2CCN(c3ncccn3)CC2)cc1F -3.61%
CCOc1ccccc1NC(=O)C(C)n1nnc2sc3c(c2c1=O)CCCC3 (stereo unspecified) 2.42%
COc1cc(OC)c(NC(=O)Nc2sc3nc4n(c(=O)c3c2C)CCC(C)CC4)cc1Cl (stereo unspecified) -14.8%
Cc1ccc(-n2c(SCC(N)=O)nc3c(oc4ccccc43)c2=O)cc1 -8.54%
O=C(COc1cccc(Cl)c1)N1CCC(c2nc3ccccc3s2)CC1 -2.63%
CCn1c(CNC(=O)C23CC4CC(CC(C4)C2)C3)nnc1SCC(=O)Nc1ccc(OC)cc1 -13.4%
O=C(O)c1cccc(NC(=O)c2cccc(S(=O)(=O)Nc3cccc(F)c3)c2)c1 7.94%
O=S(=O)(Nc1ccc(-c2ccc(N3CCCC3)nn2)cc1)c1ccccc1Cl -7.8%
COc1cccc(C(=O)Nc2ccccc2SCc2cc(=O)c3cccc(C)c3[nH]2)c1 5.59%
Cc1ccc(N2CCN(c3nc4ccccc4n4nnnc34)CC2)c(C)c1 0.803%
Cc1cc(C)cc(NC(=O)c2cc(S(=O)(=O)N3CCOCC3)cn2C)c1 1.2%
N#Cc1c[nH]n2c(NC3CCCC3)c(-c3ccc(Br)cc3)nc12 -3.2%
Cc1cc(C)c(NC(=O)Cn2nnc(-c3nc(-c4ccncc4)no3)c2N)c(C)c1 -12.5%
Cc1cccc(-c2nnn3c2nc(NCCC(C)C)c2ccccc23)c1 -1.88%
Cc1ccc(Nc2c(-c3ccc(N4CCOCC4)cc3)nc3ccc(Cl)cn23)cc1 3.04%
CCOc1ccc(C2c3c(oc4ccccc4c3=O)C(=O)N2Cc2ccc3c(c2)OCO3)cc1 (stereo unspecified) -12.5%
Cc1cc2c(cc1S(=O)(=O)N1CCC(C(N)=O)CC1)OCC(=O)N2 8.58%
CC(=O)c1ccc(NC(=O)/C=C/c2ccc(C)o2)cc1 0.112%
COc1cccc(C(=O)Nc2ccc(-c3nc4ccc(C)cc4s3)cc2)c1OC 0.83%
COc1cn(CC(=O)Nc2ccc(C)cc2C)c(CN2CCCCC2)cc1=O 0.184%
O=C(CSc1nc2c([nH]c3ccccc32)c(=O)n1-c1cccc(C(F)(F)F)c1)N1CCCC1 1.1%
CCOC(=O)c1cccc(NC(=O)C2(S(=O)(=O)c3ccc(C)cc3)CC2)c1 1.57%
CCOc1cccc(C2c3c(oc4ccc(F)cc4c3=O)C(=O)N2CCOC)c1 (stereo unspecified) 0.916%
CCCNC(=O)C1CCC(Cn2c(=O)c3sccc3n(CC(=O)N3CCCC(C)C3)c2=O)CC1 (stereo unspecified) -10.2%
CC(=O)C1=C(c2ccc(C)cc2)N(C(C)=O)n2c(nnc2-c2ccccc2)S1 -4.15%
COc1ccc(S(=O)(=O)NCC(c2ccc(N(C)C)cc2)N2CCCC2)cc1F (stereo unspecified) 2.3%
Cc1ccc(Cl)cc1N1CCN(S(=O)(=O)c2ccc3oc(=O)c4ncn(C)c4c3c2)CC1 -13.5%
CCc1ccc(OCC(=O)Nc2ccc(Cl)c(-c3nc4cc(C)cc(C)c4o3)c2)cc1 -9.99%
Cc1cccc(OCC(=O)NCC2(N3CCN(C)CC3)CCCCC2)c1 -6.82%
Cc1cccc(NC(=O)CN2C(=O)COc3ccc(S(=O)(=O)Nc4ccccc4)cc32)c1C -0.201%
Cc1[nH]c2ccc(C(=O)NCCc3ccccc3Cl)cc2c1C -5.31%
CCCS(=O)(=O)N1CC(=O)N(c2ccccc2C)C(C)(C(=O)NC2CCCCC2)C1 (stereo unspecified) 1.72%
Cc1ccc(S(=O)(=O)c2nnn3c2nc(NCc2ccc(F)cc2)c2sccc23)cc1C -9.61%
CC(C)OCCCn1c(=O)c2ccccc2n2c(-c3ccc(F)c(F)c3)nnc12 -20.8%
CCC1CN(C(=O)N2CCC(C(=O)NCc3ccc(C)o3)CC2)c2ccccc2O1 (stereo unspecified) 9.54%
COc1ccc(Nc2cc(C(=O)NCc3ccccc3)c3ccccc3n2)cc1 -1.14%
Cc1nn(-c2ccc(N3CCCC3)nn2)c(C)c1CCC(=O)NCc1ccc(F)cc1 1.22%
O=C(Cn1c(=O)n(Cc2ccc(F)cc2)c(=O)c2sc3ccccc3c21)NCc1ccccc1 -11.7%
O=C(Nc1cccc(-c2nc3cc(Cl)ccc3o2)c1)c1ccc(F)cc1 0.0587%
Cc1ccc(OCCSc2nc3ccccc3n2CC(=O)N2CCCCC2)c(C)c1 1.06%
COc1ccc(-c2nc3sc(CCNC(=O)C(=O)Nc4ccc(C)cc4C)c(C)n3n2)cc1 -0.205%
Cc1ccc(NC(=O)C2CCC(CNS(=O)(=O)c3cccc4nsnc34)CC2)c(C)c1 (stereo unspecified) -8.93%
O=C(Cn1c(=O)oc2cc(S(=O)(=O)N3CCCC3)ccc21)Nc1ccc(OC(F)(F)F)cc1 3.39%
Cc1nc2ccc(S(=O)(=O)N(CC(=O)Nc3cccc(C)c3C)Cc3ccccc3)cc2s1 3.42%
Cc1ccc(C)c(Cn2c(C(C)NC(=O)c3ccccc3)nc3ccccc32)c1 (stereo unspecified) -1.18%
O=C(CCn1cnc2onc(-c3ccc(F)cc3)c2c1=O)N1CCN(c2ccccc2)CC1 0.365%
COc1cccc(OCc2nc3ccccc3n2C)c1 -26.9%
O=C(NCc1noc2ccccc12)N1CCN(c2ccccc2F)CC1 -0.365%
CCOc1cccc2cc(-c3nc(-c4ccc(Cl)cc4)c(C)s3)c(=O)oc12 -0.388%
